From article PMC12136788 come the findings set out here.

Sequences and labels used below:
B1: chr3:58425360:58425463:+|3pUTR|ENSG00000168297|unk|FALSE|unique (ssRNA)
RNA: GGGAGUUCUACAGUCCGACGAUCAGACAGCUCCUAGAAACAUUCCUCUUACAGUUCAUUUCUCUAAAGCAUUUUCUGAUUCUUAGAUAACUCCAAUUUUUGCUACCUUUAUCUUAGACAUUAACACUAUAGCCCAAAGCAUAGCAACAGAGGAUUGAGCAUCA
B2: chr5:75360489:75360590:+|3pUTR|ENSG00000113161|msi1|FALSE|unique (ssRNA)
RNA: GGGAGUUCUACAGUCCGACGAUCGCUCUUUCAGAGAGGUCUCAGGUUCUUUCCAUGCAGACUCCUCAGAUCUGAACACAGUUUAGUGCUUUACAUGCUGUGCUCUUUGAAGAGAUUUCAACAAGAAUAUUGUAUGUUAAAGCACAACAGAGGAUUGAGCAUCA
B3: chr8:143803364:143803465:-|CDS|ENSG00000180900|msi1|total|mutant (ssRNA)
RNA: GGGAGUUCUACAGUCCGACGAUCACCCUCACCGUGCUGGUCUGUGACGGCUUUGAGGCCAGCACCGACGCAGCCCUGGAGGUCCGCGAUCCCGCCCCGGGGACCGGGCCUCCCUCUGGCCCAGCCCAAGGUGUUGUGAGCCGCCAACAGAGGAUUGAGCAUCA
B4: chrX:56565067:56565173:+|CDS|ENSG00000188021|unk|total|mutant (ssRNA)
RNA: GGGAGUUCUACAGUCCGACGAUCAGAAGCAUGAUGCAGUCGCUGAGCCAGAAUCCAGAUUUGGCUGCACAGAUGAUGCUGAACCGCCCGCUGUUUACUGCAAAUCCUCAGCUGCAGGAGCAGAUGCGGCCACAGCUCCCAGCCCAACAGAGGAUUGAGCAUCA
B5: chr2:11642538:11642650:+|3pUTR|ENSG00000196208|unk|FALSE|unique (ssRNA)
RNA: GGGAGUUCUACAGUCCGACGAUCCGAAGAGUUGAUGUCAAUCUUUUUUUCCUAAGAAAAAAAGUCCGCGAGUAUUAAAUAUUUAGAUCAAUGUUUAUAAAAUGAUUACUUUGUAUAUCUCAUUAUUCCUAUUUUGGAAUAAAACAACAGAGGAUUGAGCAUCA
B6: chr1:211748167:211748268:-|3pUTR|ENSG00000123684|msi1|total|mutant (ssRNA)
RNA: GGGAGUUCUACAGUCCGACGAUCGUACUGCAUCAGUGAGAUGAGCCGGGUUUUUGUUUGGGAUUGUAAGACUAUUAAGAUCCCCGUAAGUCAGUGGCCGUUUACUGUGAUGUGAGCAUUGCCGAUUCCCCCGUUGUCACUAAUCAACAGAGGAUUGAGCAUCA
B7: chr1:85267750:85267865:-|CDS|ENSG00000142867|unk|total|mutant (ssRNA)
RNA: GGGAGUUCUACAGUCCGACGAUCAGGAGAAUCCAGCACGACGCCCUUUUUUUCUACUAAUUCUUCUCUGAAUUUGCCUGUUCCCGAAGCCGGCAGAACUGAAAAUACCAUCUUCUCUUCAACUACACUUCCCAGACCUGGGGACAACAGAGGAUUGAGCAUCA
B8: ENSG00000198589:be:win_6551|CDS|ENSG00000198589|bound_else_gene|NA|bound_elsewhere_windowed (ssRNA)
RNA: GGGAGUUCUACAGUCCGACGAUCGACGUAUUUCAUUAGCUAGUCCACGUCAGCUUUUUAAGGCUUCUAAUAUGACCCAGCGAUGGCAACACAGAGAGAUAUCUAAUUUUGAGUACUUGAUGUUUCUCAACACGAUAGCAGGACCAACAGAGGAUUGAGCAUCA
B9: chr3:170361105:170361226:+|CDS|ENSG00000136603|unk|total|mutant (ssRNA)
RNA: GGGAGUUCUACAGUCCGACGAUCAAGCUCAUUGGCCCAGUUAAAGGAAACUGGCAGUGCCUUUGAAGUGGAGCAUGAAUGCCCCGGCAAAUGUCAGGGUUUAUUUGCACCCCAGUUUUAUGUUCAGCCUGAUGCUCCGUGUAUCAACAGAGGAUUGAGCAUCA
B10: chr7:88283957:88284065:-|CDS|ENSG00000127954|unk|total|mutant (ssRNA)
RNA: GGGAGUUCUACAGUCCGACGAUCCAGUGGUGCAGAAGUCUUGAGCUAUUCAGAAGCAGCCAAGAAGUCUGGCAUCAUAAUCACCGCAAUCCACAGAGAGCAUUAUGAUUUUCUCACAGAAUUAACUGAGGUUCUCAAUGGAAACAACAGAGGAUUGAGCAUCA
B11: chr12:108783210:108783311:-|3pUTR|ENSG00000084112|msi1|total|mutant (ssRNA)
RNA: GGGAGUUCUACAGUCCGACGAUCUGUUUAUCCUGCUAUGCAGUUUUACAUUGUGUGUUCACAUCUAUUCCAAGGAGCCUUGCCCGAAACAACACUGGCGGUUCCUGCAGGCCAGGCAGGCAUUGGCCCAUGCUGUGUCCCAUACAACAGAGGAUUGAGCAUCA
B12: chr16:56429670:56429771:-|3pUTR|ENSG00000167005|msi1|FALSE|unique (ssRNA)
RNA: GGGAGUUCUACAGUCCGACGAUCCAAUCACUGAGACUGCAUCAGAGUUUGCAAUUUUGUAUGUUUCAUUGCCAAAGAAGGCUUAGUGGUUGUUGACUGUAGUAUAAGUCAGCUUUCUGUAGCAUAAGAUUUGAUUUUCCCAUACAACAGAGGAUUGAGCAUCA
B13: chr3:113720845:113720875:-|3pUTR|ENSG00000121579|msi1_unk|total|mutant (ssRNA)
RNA: GGGAGUUCUACAGUCCGACGAUCCCUUUUUCUUCAGUAAACCCAACAACCGUCUAACCUUAAAAAUUGAGUUGAUGUCCUUACCGGUCACUACCCCUAAAUAAACCUGAAGCAGGUGUUUUCUCUUGGACAUACUAAAAAAUACAACAGAGGAUUGAGCAUCA
B14: ENSG00000136451:be:win_2751|3pUTR|ENSG00000136451|bound_else_gene|NA|bound_elsewhere_windowed (ssRNA)
RNA: GGGAGUUCUACAGUCCGACGAUCCUUUGUGGUGUUUUCAGGGAGACAGCUGUCUGCAUUCCCUGUAGAAACCCAGCAAUGAUUAUGCACGUUGAGACAUGUGCUUUUUAUUUCUUAGCAAGAUAUUUUAUCUCUGUACAUAAACAACAGAGGAUUGAGCAUCA
B15: chr8:143707665:143708109:-|CDS|ENSG00000255181|control|control|control (ssRNA)
RNA: GGGAGUUCUACAGUCCGACGAUCGCGCGCCCAGCGCUGCGCCAAAGCCAUCGUCCGGCUGGACGAGCAGAACCGCGUGGACCUAGCGCAGAUCCACUGGCAGCGGGCGGAACUGGCCUCGCUCUACCACGGGCGCGAGGACGGCAACAGAGGAUUGAGCAUCA
B16: chr4:65323451:65323552:-|3pUTR|ENSG00000145242|msi1|FALSE|unique (ssRNA)
RNA: GGGAGUUCUACAGUCCGACGAUCAUCAAGAAAAAGUACAAUACAGGGUGUAUAUUUAUUUUUUGUGUUAUAAAGUUUACUUUUAGUUGCUCUUCUAGAGAUUAUUAGGUAAUAAAUGUGUAUAUACUGUAUAAUUUGCAAUAUCAACAGAGGAUUGAGCAUCA
B17: chr10:72011604:72011705:+|3pUTR|ENSG00000122863|msi1|FALSE|unique (ssRNA)
RNA: GGGAGUUCUACAGUCCGACGAUCCACCUGCCCGGAGACAGAGGGAGCAGCUGAGGCCUCUCUCCACUGGCCGCCAGCCUCCCUAGCACAAGGGGACCAUUCAGCAAUGAGUGUUUACUCAUGUUCUUUCUUGUUGAUGAGUUCCAACAGAGGAUUGAGCAUCA
B18: chr6:111661451:111661552:-|3pUTR|ENSG00000010810|msi1|total|mutant (ssRNA)
RNA: GGGAGUUCUACAGUCCGACGAUCCUUUGGAAAAUGCAUUGUAUCGAUGUUAUGUAAAAGGCCAAACCUCUGUUCAGUGUAAACCGUUACUCCAGUGCCAACAAUCCCCGUGCUUUCCUUUUUUAAAAAUGCAAAUCCUAUGUGCAACAGAGGAUUGAGCAUCA
B19: chr5:91369659:91369760:-|3pUTR|ENSG00000113369|msi1|FALSE|bound_elsewhere (ssRNA)
RNA: GGGAGUUCUACAGUCCGACGAUCUCAGCAUUUUCCAAGGUACCAAGUGUACUUAUUUUGUUGUUGUUGUUGUUGUUGUAUUUUAGAAGGAAUUCAGCUCUGAUGUUUUUAAAGAAAACCAGCAUCUCUGAUGUUGCAACAUACCAACAGAGGAUUGAGCAUCA
B20: chr16:67098774:67098826:+|CDS_3pUTR|ENSG00000067955|msi1_unk|FALSE|overlapping (ssRNA)
RNA: GGGAGUUCUACAGUCCGACGAUCAGACCCUAGUCCUGGUUCCAAUUUAGGUGGUGGUGAUGACCUCAAACUUCGUUAAUUAAUAGCACAGCAGAUGUGUGCUGCCCAUCUUUACAUACACAUUGCUUCUAGUUGGCAGAAAUACAACAGAGGAUUGAGCAUCA
B21: chr7:139045324:139045425:-|3pUTR|ENSG00000105939|msi1|total|mutant (ssRNA)
RNA: GGGAGUUCUACAGUCCGACGAUCAGUUCAAAACCGCUGUCAUGGCCCCAUGUGAUCUCUCCCUCCCCUACCCCUCUAUCAUUCCGUUUCUUCUGCGCAAGCCACUCUGGCUUCCUUUCAGUUUUGUGGUUCCCAUUUUCCGCUCAACAGAGGAUUGAGCAUCA
B22: chr11:77702383:77702481:-|5pUTR_CDS|ENSG00000048649|msi1_unk|total|mutant (ssRNA)
RNA: GGGAGUUCUACAGUCCGACGAUCAUUUUCCGAGGAACAGAAAGAAAGUGAAAAGAUGAAAAGUGAGGAGCAGCCUAUGGAUUCCGAAAACCGUUCUACAGCCAAUGUUCCCGAAGAGACUACUGUGAAAAAAGAAAAAGAAGACAACAGAGGAUUGAGCAUCA

Some of the results follow.

The target of this test is MSI1 full-length (mouse, UniProt Q61474 1-362). Briefly: nsRBNS (natural sequence RNA bind-n-seq); RBNS binding buffer (assumed for nsRBNS): 25 mM Tris pH 7.5, 150 mM KCl, 3 mM MgCl2, 0.01% Triton X-100, 500 ug/ml BSA, 20 U/ml SUPERase-In, 4 C; UNK is unkempt and MSI1 is Musashi-1; names of the RNAs are library labels; protein concentration not given here; high values mean tight binding.
Chain of UniProt Q61474 (Q61474 whole entry): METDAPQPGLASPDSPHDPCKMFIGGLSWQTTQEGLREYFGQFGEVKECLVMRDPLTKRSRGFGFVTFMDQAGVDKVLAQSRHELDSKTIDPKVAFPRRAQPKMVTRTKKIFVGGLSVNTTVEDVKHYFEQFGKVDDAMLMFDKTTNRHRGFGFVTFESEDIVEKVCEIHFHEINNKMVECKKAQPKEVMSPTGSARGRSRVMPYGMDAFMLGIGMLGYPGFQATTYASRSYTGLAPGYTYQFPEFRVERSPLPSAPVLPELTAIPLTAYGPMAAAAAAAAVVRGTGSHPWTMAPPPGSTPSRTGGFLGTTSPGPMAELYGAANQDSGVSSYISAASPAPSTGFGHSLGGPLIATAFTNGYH
In turn, B1 yielded a binding signal of 8.08 enrichment R.

B2: the binding signal is 0.181 enrichment R.

In the case of B3, the binding signal was 0.234 enrichment R.

Take B4: the binding signal is 0.353 enrichment R.

In turn, B5 showed a binding signal of 2.38 enrichment R.

B6 showed a binding signal of 0.516 enrichment R.

Molecule B7 yielded a binding signal of 0.454 enrichment R.

As for B8, the binding signal came out at 1.43 enrichment R.

In the case of B9, the binding signal came to 0.316 enrichment R.

B10: the binding signal came out at 0.239 enrichment R.

B11 showed a binding signal of 0.859 enrichment R.

Molecule B12 displayed a binding signal of 2.88 enrichment R.

As for B13, the binding signal stood at 0.874 enrichment R.

For the molecule B14, the binding signal came to 0.658 enrichment R.

In turn, B15 showed a binding signal of 0.334 enrichment R.

The molecule B16 gave a binding signal of 11.9 enrichment R.

The molecule B17 had a binding signal of 0.384 enrichment R.

For the molecule B18, the binding signal is 0.319 enrichment R.

Turning to B19, the binding signal was determined as 0.425 enrichment R.

For B20, the binding signal turned out to be 2.16 enrichment R.

B21 returned a binding signal of 0.75 enrichment R.

In turn, B22 showed a binding signal of 0.512 enrichment R.
